Results: the supplement of paper PMC10126150
Values marked as one replicate rest on one cluster of the flow cell; about a third of the high ones do not repeat.

Tested on: ATP
Assay: switch fluorescence ratio, 500 uM ATP over buffer (Cy3 cluster intensity, sum of 5 cycles each) (fold (ratio)); higher = stronger signal-on switching upon ATP binding; sequences stand for … in TCGTCGGCAGCGTCAGATGTGTATAAGAGACAGTTTTTTTTTTTTTTTTTTTTTTTTT…TC
Settings: aptamer strand: ATP DNA aptamer (quencher-CACCTGGGGGAGTATTGCGGAGGAAGG + anchor), 100 nM annealed; ATP concentration: 500 uM; one replicate
Outline: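 The fluorescence ratio divides summed target-cycle Cy3 intensity by summed buffer-cycle Cy3 intensity for each cluster and is averaged per switch-domain sequence. Cy3-labelled switching-strand clusters on a modified Illumina MiSeq flow-cell were annealed to 100 nM quencher-labelled ATP aptamer, then imaged in selection buffer and again after 15 min with 500 uM ATP at 22 °C. Five such cycles were run, with NaOH stripping and re-annealing between them, and clusters outside 100-1000 RFU were excluded.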
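Further: ATP exposure 15 min at 22 °C before imaging.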

Row | Sequence | switch fluorescence ratio
1 | GTTAACTTAG | 1.04
2 | CGTGACTCCA | 1.23
3 | TTATGGCTAA | 0.999
4 | GCACCCCACG | 1.54
5 | AAGTAGGCAG | 1.07
6 | TTGCTTAATT | 1.07
7 | TTTGAATACT | 1.02
8 | ACCCGGGCAC | 1.03
9 | TCAGTTCCTA | 0.994
10 | GAGGCTTGAA | 1.07
11 | CCGGGGCTT | 1.25
12 | CCGTACATTT | 1.02
13 | TACACTCGGG | 0.977
14 | TTAGGGGTC | 1
15 | CTCGGCCTAG | 1.03
16 | GGAGAAAGGT | 1.02
17 | GTTGTGTCGC | 0.974
18 | CGACCTGATC | 1.71
19 | CTGACGCCGA | 1.6
20 | TAGCCGAGTC | 1.03
21 | CTATGTACAC | 1.06
22 | TTAAAAGACA | 1.04
23 | CACGAGGCTT | 1.09

Row | Sequence | switch fluorescence ratio
24 | GCGTCCGGT | 1.05
25 | GGTGATTATG | 0.973
26 | CACCCATTGT | 1.04
27 | TCAGCTGAGT | 0.984
28 | AGGCGACGTG | 1.01
29 | TGGCGCATGA | 1.01
30 | TTAAAATTAG | 1.01
31 | GATCTATGAC | 1.01
32 | CGCTCAACTT | 1.05
33 | ATACTTACTA | 1.19
34 | TCCGAGGCTT | 1.1
35 | AGTTGTAATT | 1.02
36 | ATTATTTCTT | 1.01
37 | GGCGGGAATC | 0.975
38 | TAAGATAGGC | 0.984
39 | ACTTAGATTA | 1.06
40 | TAGTCGTCGA | 0.999
41 | GCAAGGGTCG | 1.18
42 | TTACCGGCAG | 0.964
43 | GGGAAACTAT | 0.992
44 | TGACTTACGC | 1.36
45 | TTTACCAAGA | 1
46 | TTGCGGGAAA | 1.02

Row | Sequence | switch fluorescence ratio
47 | ATTCCGGA | 0.976
48 | GAGCATTGTT | 1.02
49 | CTGGCCGGGT | 1.04
50 | GCGTGGCGGA | 1.04
51 | GAGATCCGCA | 1.74
52 | CGCAGGTTCC | 1.44
53 | TGCGCCCGTC | 1.01
54 | TAGAAAGAGA | 0.95
55 | TTCTCCGG | 1.11
56 | TTCCAACATG | 0.992
57 | AATCAACTGC | 0.997
58 | ACCTGCGGTC | 1.06
59 | GGTGCATTCG | 1.03
60 | CGAGCTCCTA | 1.08
61 | ATGGGAAGGA | 1.03
62 | GATTTTGTG | 0.933
63 | ATGAAATCTC | 0.977
64 | CTATGGCAAC | 1.2
65 | TGCTCTCAGC | 0.983
66 | GACAGGCTCG | 1.05
67 | GAAGTGAACA | 1.01
68 | CGAACCCTAC | 1.32
69 | AGTGAGAATG | 1.05

Row | Sequence | switch fluorescence ratio
70 | ACTTGAGTGC | 0.959
71 | GGGCATCTCC | 1.09
72 | CCAAGAGGTA | 1.02
73 | CCGAAGTCTG | 2.61
74 | CAAAGAAGAC | 1.05
75 | AACAGTGGAG | 1.01
76 | TTCTTCCCG | 1.58
77 | ATGTCAGATC | 1.02
78 | AGTAAAATTG | 0.99
79 | TCTCACTAGT | 0.993
80 | GGTGTTAATA | 1.02
81 | GCGTCGCATA | 0.981
82 | TTTCTTTTCG | 1.04
83 | TCAGACTCGG | 1.08
84 | CCTAACAAG | 1.01
85 | GGGTGGTCGA | 1.02
86 | TGATCATCTG | 1.01
87 | TTCTCTTTCG | 0.993
88 | GCGTTCTTGC | 0.959
89 | GACTAATTGC | 0.995
90 | ATCCCAGCTT | 0.994
91 | ATCCAGCT | 1.11
92 | GGGAATATTG | 0.973

Row | Sequence | switch fluorescence ratio
93 | TGGATATTG | 0.989
94 | ACTGGGCACT | 1.04
95 | TTTCGGTCAG | 0.994
96 | GGCCCCATTA | 2.54
97 | TTCCAGACGG | 1.03
98 | CATTAATCGT | 0.966
99 | ACTGGAGGTA | 0.99
100 | TACTATGGTG | 0.981
101 | CACTGGATTT | 1.01
102 | AAAGTAGGCC | 0.967
103 | CTAGCTCTGT | 0.952
104 | AAACGGCGGG | 0.971
105 | TATCAACGGA | 1.04
106 | TTTGTGAAGG | 1.02
107 | GTGTATTTGG | 0.991
108 | GATAGTGATC | 1.04
109 | GTCATAAATC | 0.977
110 | CGTTGCCCGT | 1.02
111 | GTTAAACTAA | 1.01
112 | CAGAGTTACT | 1.04
113 | TGGGGAAGAT | 0.958
114 | CAGTACCACG | 1.07
115 | TACAAAATTA | 1.02

Row | Sequence | switch fluorescence ratio
116 | GGGTTATGCC | 0.999
117 | TGAGTTCTTA | 0.976
118 | AGGTGCTTTT | 0.997
119 | TCTGGTTGAT | 1
120 | TTTATAATCC | 1.09
121 | TATCGTGACT | 1.01
122 | TTAAGTCGGA | 0.997
123 | GTTTCCCTTC | 1.01
124 | TTCTCACAGG | 1.01
125 | GCGCAATGCA | 2.39
126 | GACAGGAGGA | 0.983
127 | GCGAATGAGG | 0.957
128 | ACTCATTGCG | 1.06
129 | CCCAGTAATT | 1.14
130 | GCCCGGTCGT | 1.01
131 | CCCGTAAAGC | 3.69
132 | CGGTAGCTGG | 0.988
133 | ACAAGCGTTG | 0.996
134 | TATTCTACGA | 1.04
135 | TGAGACCGCG | 1.01
136 | ACGTCTTCGA | 0.971
137 | ATCAACCCCA | 1.05
138 | GTGATCTCCA | 0.968

Row | Sequence | switch fluorescence ratio
139 | TTTACAGGAG | 0.999
140 | ACTTCCAGCT | 1.2
141 | GCCGGTGTAC | 1.18
142 | GTGCGACTGC | 0.983
143 | ACTTGTATCC | 1.02
144 | TACTAAATCA | 1.04
145 | CGATGTTTGC | 1.15
146 | CGACAAAGAC | 3.07
147 | GGCACGCTTG | 1
148 | CGTACATATT | 1.05
149 | ATAGAGGCTT | 1.01
150 | ACGTTTTTAT | 1
151 | GGTTTCAAGA | 1.02
152 | CTCTTAAAAG | 1.01
153 | AGTAGGCCCA | 0.969
154 | CGAGTGGATC | 1.05
155 | CCTGATAT | 1.52
156 | CTTGTGTTTG | 1.04
157 | ATGGGGTGAT | 1.04
